In publication PMC3599065:
Residue numbers refer to the chain shown, from its start. No constants are given. Whether binding was seen depends on the method and setting. In cells and extracts the contact can be indirect. Some binding calls cover weakened binding; strength is not graded here. Sequences can lack the tags named with a protein.

B1: GFP-JIP3-WT (protein, UniProt Q9ESN9 1-1337)
chain: MMEIQMDEGGGVVVYQDDYCSGSVMSERVSGLAGSIYREFERLIHCYDEEVVKELMPLVVNVLENLDSVLSENQEHEVELELLREDNEQLLTQYEREKALRKQAEEKFIEFEDALEQEKKELQIQVEHYEFQTRQLELKAKNYADQISRLEERESEMKKEYNALHQRHTEMIQTYVEHIERSKMQQVGGSGQTESSLPGRSRKERPTSLNVFPLADGMVRAQMGGKLVPAGDHWHLSDLGQLQSSSSYQCPNDEMSESGQSSAAATPSTTGTKSNTPTSSVPSAAVTPLNESLQPLGDYVSVTKNNKQAREKRNSRNMEVQVTQEMRNVSIGMGSSDEWSDVQDIIDSTPELDVCPETRLERTGSSPTQGIVNKAFGINTDSLYHELSTAGSEVIGDVDEGADLLGEFSVRDDFFGMGKEVGNLLLENSQLLETKNALNVVKNDLIAKVDQLSGEQEVLKGELEAAKQAKVKLENRIKELEEELKRVKSEAVTARREPREEVEDVSSYLCTELDKIPMAQRRRFTRVEMARVLMERNQYKERLMELQEAVRWTEMIRASREHPSVQEKKKSTIWQFFSRLFSSSSSPPPAKRSYPSVNIHYKSPTAAGFSQRRSHALCQISAGSRPLEFFPDDDCTSSARREQKREQYRQVREHVRNDDGRLQACGWSLPAKYKQLSPNGGQEDTRMKNVPVPVYCRPLVEKDPSTKLWCAAGVNLSGWKPHEEDSSNGPKPVPGRDPLTCDREGEGEPKSTHPSPEKKKAKETPEADATSSRVWILTSTLTTSKVVIIDANQPGTIVDQFTVCNAHVLCISSIPAASDSDYPPGEMFLDSDVNPEDSGADGVLAGITLVGCATRCNVPRSNCSSRGDTPVLDKGQGDVATTANGKVNPSQSTEEATEATEVPDPGPSESEATTVRPGPLTEHVFTDPAPTPSSSTQPASENGSESNGTIVQPQVEPSGELSTTTSSAAPTMWLGAQNGWLYVHSAVANWKKCLHSIKLKDSVLSLVHVKGRVLVALADGTLAIFHRGEDGQWDLSNYHLMDLGHPHHSIRCMAVVNDRVWCGYKNKVHVIQPKTMQIEKSFDAHPRRESQVRQLAWIGDGVWVSIRLDSTLRLYHAHTHQHLQDVDIEPYVSKMLGTGKLGFSFVRITALLIAGNRLWVGTGNGVVISIPLTETVVLHRGQLLGLRANKTSPTSGEGTRPGGIIHVYGDDSSDKAASSFIPYCSMAQAQLCFHGHRDAVKFFVSVPGNVLATLNGSVLDSPSEGPGPAAPAADAEGQKLKNALVLSGGEGYIDFRIGDGEDDETEECAGDVNQTKPSLSKAERSHIIVWQVSYTPE
B2: GFP-DLK (protein, UniProt Q63796 1-888)
chain: MACLHETRTPSPSFGGFVSTLSEASMRKLDPDTSDCTPEKDLTPTQCVLRDVVPLGGQGGGGPSPSPGGEPPPEPFANSVLQLHEQDTGGPGGATGSPESRASRVRADEVRLQCQSGSGFLEGLFGCLRPVWTMIGKAYSTEHKQQQEDLWEVPFEEILDLQWVGSGAQGAVFLGRFHGEEVAVKKVRDLKETDIKHLRKLKHPNIITFKGVCTQAPCYCILMEFCAQGQLYEVLRAGRPVTPSLLVDWSMGIAGGMNYLHLHKIIHRDLKSPNMLITYDDVVKISDFGTSKELSDKSTKMSFAGTVAWMAPEVIRNEPVSEKVDIWSFGVVLWELLTGEIPYKDVDSSAIIWGVGSNSLHLPVPSSCPDGFKILLRQCWNRKPRNRPSFRQILLHLDIASADVLSTPQETYFKSQAEWREEVKLHFEKIKSEGTCLHRLEEELVMRRREELRHALDIREHYERKLERANNLYMELNALMLQLELKERELLRREQALERRCPGLLKSHTSRSLLHGNTMEKLIKKRNVPQKLSPHSKRPDILKTESLLPKLDAALSGVGLPGCPKAPPSPGRSRRGKTRHRKASAKGSCGDLPGLRAALPPHEPGGLGSPGGLGVGPTAWDASPPALRGLHHDLLLRKMSSSSPDLLSAALGARGRGATGGARDPGSPPPPQGDTPPSEGSAPGSTSPDSPGGAKGEPPPPVGPGEGVGLLGTGREGTTGRGGSRAGYQHLTPAALLYRAAVTRSQKRGISSEEEEGEVDSEVELPPSQRWPQGPNMRQSLSTFSSENPSDVEEGTASEPSPSGTPEVGSTNTDERPDERSDDMCSQGSEIPLDLPTSEVVPERETSSLPMQHQDDQGPNPEDSDCDSTELDNSNSIDALPPPASLPP
B3: GFP-JIP3-LZ4A (protein, UniProt Q9ESN9 1-1337)
chain: B1 chain with L431A, L438A, L452A, L459A
B4: GFP-JIP1-WT (in HEK293T) (protein, UniProt Q9WVI9 1-707)
chain: MAERESGLGGGAASPPAASPFLGLHIASPPNFRLTHDISLEEFEDEDLSEITDECGISLQCKDTLSLRPPRAGLLSAGSSGSAGSRLQAEMLQMDLIDAAGDTPGAEDDEEEEDDELAAQRPGVGPPKAESNQDPAPRSQGQGPGTGSGDTYRPKRPTTLNLFPQVPRSQDTLNNNSLGKKHSWQDRVSRSSSPLKTGEQTPPHEHICLSDELPPQGSPVPTQDRGTSTDSPCRRSAATQMAPPSGPPATAPGGRGHSHRDRIHYQADVRLEATEEIYLTPVQRPPDPAEPTSTFMPPTESRMSVSSDPDPAAYSVTAGRPHPSISEEDEGFDCLSSPERAEPPGGGWRGSLGEPPPPPRASLSSDTSALSYDSVKYTLVVDEHAQLELVSLRPCFGDYSDESDSATVYDNCASASSPYESAIGEEYEEAPQPRPPTCLSEDSTPDEPDVHFSKKFLNVFMSGRSRSSSAESFGLFSCVINGEEHEQTHRAIFRFVPRHEDELELEVDDPLLVELQAEDYWYEAYNMRTGARGVFPAYYAIEVTKEPEHMAALAKNSDWIDQFRVKFLGSVQVPYHKGNDVLCAAMQKIATTRRLTVHFNPPSSCVLEISVRGVKIGVKADDALEAKGNKCSHFFQLKNISFCGYHPKNNKYFGFITKHPADHRFACHVFVSEDSTKALAESVGRAFQQFYKQFVEYTCPTEDIYLE

How the values were obtained:
Test in all cases: pull-down; lysates of HEK293T cells expressing a TAP-tagged JIP1 or JIP3 construct with V5-KLC, V5-KHC and a GFP-tagged partner (GFP-JIP3, GFP-JIP1, GFP-DLK or GFP-APP-C constructs), precipitated with streptavidin sepharose, western blot
[1] = target: T1, TAP-JIP1-WT (in HEK293T) (mouse) (UniProt Q9WVI9)
T1 sequence: B4 chain

TAP-JIP1-dCT (mouse) = target: T2, TAP-JIP1-dCT (mouse) (UniProt Q9WVI9)
T2 sequence: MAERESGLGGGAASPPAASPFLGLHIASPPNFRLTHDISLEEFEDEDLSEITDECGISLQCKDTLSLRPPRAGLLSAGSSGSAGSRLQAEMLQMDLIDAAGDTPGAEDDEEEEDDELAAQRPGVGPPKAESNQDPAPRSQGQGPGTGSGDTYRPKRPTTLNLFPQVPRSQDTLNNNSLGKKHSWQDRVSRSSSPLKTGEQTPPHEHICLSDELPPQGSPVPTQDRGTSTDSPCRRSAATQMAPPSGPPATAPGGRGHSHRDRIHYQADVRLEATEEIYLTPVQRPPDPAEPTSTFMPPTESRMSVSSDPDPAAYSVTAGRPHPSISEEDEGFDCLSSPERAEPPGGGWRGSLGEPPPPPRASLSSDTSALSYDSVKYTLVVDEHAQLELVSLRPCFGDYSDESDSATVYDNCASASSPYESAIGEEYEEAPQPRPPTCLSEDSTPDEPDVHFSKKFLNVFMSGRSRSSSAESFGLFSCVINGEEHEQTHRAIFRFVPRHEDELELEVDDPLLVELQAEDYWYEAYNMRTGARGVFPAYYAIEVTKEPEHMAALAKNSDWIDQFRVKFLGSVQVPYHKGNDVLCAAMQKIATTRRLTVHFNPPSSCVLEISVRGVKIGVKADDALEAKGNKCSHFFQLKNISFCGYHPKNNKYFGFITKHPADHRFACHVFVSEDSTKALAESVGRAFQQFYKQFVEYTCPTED

TAP-JIP3-WT (mouse) = target: T3, TAP-JIP3-WT (mouse) (UniProt Q9ESN9)
T3 sequence: B1 chain

| Binder | binding [1] | binding (TAP-JIP1-dCT (mouse)) | binding (TAP-JIP3-WT (mouse)) |
| --- | --- | --- | --- |
| B1 | binds | binds | – |
| B2 | binds | – | – |
| B3 | binds | – | – |
| B4 | – | – | binds |
